The list shows a part of the results. The full chains were built here from the parent and the listed change. Values near 0.05 are background.
B1: TEV protease; numbered along this chain (parent)
chain: MGESLFKGPRDYNPISSSICHLTNESDGHTTSLYGIGFGPFIITNKHLFRRNNGTLVVQSLHGVFKVKDTTTLQQHLVDGRDMIIIRMPKDFPPFPQKLKFREPQREERICLVTTNFQTKSMSSMVSDTSCTFPSGDGIFWKHWIQTKDGQCGSPLVSTRDGFIVGIHSASNFTNTNNYFTSVPKNFMELLTNQEAQQWVSGWRLNADSVLWGGHKVFMVKPEEPFQPVKEATQL

Variants of: B1
Experiment: raw area under fraction-flipped curve 0-4 h after induction (AUC4h, not background-subtracted), DNA-recorder readout of cleavage of the substrate (dimensionless); higher = more cleavage of the substrate by the protease variant
Conditions: temperature: 34 °C; time window: 0-4 h after rhamnose induction
Protocol: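 In vivo DNA recorder in E. coli TOP10(DE3) ΔrhaA at 34 °C. Each TEVp single-site mutant (parent TEVp 0) is paired with a single-site variant of the 7-mer TEVs (canonical ENLYFQ|S). The substrate sits between flexible linkers in a Bxb1-sfGFP-TEVs-SsrA fusion, so cleavage stabilises Bxb1 and speeds flipping of a recombination array, read by NGS. The value is the raw area under the fraction-flipped curve over 0-4 h after rhamnose induction (AUC4h), with ≥20 reads per time point. It is not background-subtracted; inactive controls average about 0.047.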
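Note: Bxb1 expression induced with 0.2% (w/v) L-rhamnose at OD600 near 0.5, cultures sampled hourly, flipped fraction per protease–substrate barcode pair counted by paired-end Illumina sequencing.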

Row | Variant | area with substrate EALYFQS | area with substrate EFLYFQS | area with substrate EGLYFQS | area with substrate EILYFQS | area with substrate EKLYFQS | area with substrate ELLYFQS | area with substrate EMLYFQS | area with substrate EQLYFQS | area with substrate ESLYFQS | area with substrate EVLYFQS | area with substrate EWLYFQS | area with substrate EDLYFQS | area with substrate EELYFQS | area with substrate EPLYFQS | area with substrate ERLYFQS | area with substrate ETLYFQS | area with substrate EYLYFQS | area with substrate EHLYFQS | area with substrate ECLYFQS
1 | K68P | 0.145 | 0.0798 | 0.109 | 0.092 | 0.0992 | 0.0967 | 0.13 | 0.109 | 0.111 | 0.114 | 0.102 | – | – | – | – | – | – | – | –
2 | K68G | 0.138 | – | 0.0851 | 0.1 | – | 0.0816 | 0.106 | 0.135 | 0.107 | 0.141 | 0.0846 | 0.116 | 0.125 | 0.124 | – | – | – | – | –
3 | K68W | 0.123 | 0.102 | 0.0972 | 0.0638 | 0.101 | 0.0773 | 0.108 | 0.128 | 0.1 | 0.0993 | – | 0.135 | 0.0844 | – | 0.109 | 0.106 | 0.0791 | – | –
4 | Y34A | 0.145 | – | 0.0603 | 0.0941 | 0.0878 | 0.0669 | – | – | 0.114 | – | 0.0784 | 0.0871 | – | – | 0.0551 | – | – | – | –
5 | Y34S | 0.0902 | – | 0.102 | 0.0797 | 0.0465 | 0.0829 | – | 0.0942 | 0.0907 | 0.0759 | 0.0849 | 0.136 | 0.0913 | – | 0.0957 | – | – | 0.154 | –
6 | I19A | 0.09 | 0.0826 | 0.0894 | – | 0.0863 | – | – | 0.149 | 0.0971 | – | – | 0.103 | 0.11 | 0.112 | 0.0831 | 0.0933 | 0.0842 | – | –
7 | R51P | 0.071 | 0.0844 | – | – | 0.0655 | 0.0664 | – | 0.0699 | 0.0847 | 0.0592 | – | 0.0936 | 0.0841 | 0.0943 | 0.0812 | 0.0779 | – | 0.0514 | –
8 | R51W | 0.098 | 0.0663 | 0.0885 | 0.0928 | – | 0.124 | – | 0.168 | 0.107 | – | 0.126 | – | – | – | 0.107 | – | – | 0.132 | –
9 | R51Y | 0.139 | 0.133 | 0.064 | 0.117 | 0.099 | – | – | 0.143 | 0.126 | 0.107 | – | 0.15 | 0.124 | 0.124 | – | 0.142 | – | – | –
10 | T71G | 0.0805 | – | 0.0757 | 0.0617 | – | 0.0689 | – | 0.1 | 0.0854 | 0.0731 | 0.0661 | – | – | 0.0694 | 0.0745 | – | 0.0655 | 0.0607 | –
11 | T71K | 0.143 | – | – | – | 0.096 | 0.0873 | 0.128 | 0.117 | 0.119 | – | – | – | 0.112 | – | 0.0913 | – | – | – | –
12 | T55D | 0.105 | – | – | 0.0722 | – | – | 0.109 | 0.0996 | 0.101 | 0.0703 | 0.0721 | – | 0.106 | 0.0943 | – | – | – | – | –
13 | T55L | 0.0853 | 0.0931 | – | 0.0825 | – | 0.0935 | 0.0956 | 0.0643 | 0.0966 | 0.0774 | – | 0.117 | – | – | 0.104 | – | 0.09 | – | –
14 | E25M | 0.138 | – | 0.102 | 0.0927 | 0.108 | 0.0718 | – | 0.0775 | 0.112 | 0.109 | 0.035 | – | 0.129 | 0.118 | 0.0985 | – | – | – | –
15 | E25H | 0.145 | – | 0.104 | 0.112 | 0.105 | – | – | – | 0.114 | 0.111 | 0.105 | – | – | 0.172 | 0.103 | 0.0866 | – | 0.102 | 0.116
